For 63 compounds, relative growth results are on record in the supplement of paper PMC9446081.

Each structure is given as a SMILES string. Among all 39,000 compounds or so, about 220 (0.56%) showed activity. The list shows a part of the results.
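Further: static incubation at 37 °C against the wild-type strain, values averaged over two biological replicates.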

In this assay the test system is Escherichia coli K-12 BW25113. Nature of the assay: relative growth (OD600 normalised to plate interquartile mean) (fraction); higher = less growth inhibition, active = 0.2 or less. Particulars: 50 µM; LB; incubation time: overnight (16-24 h).
Take `NCc1cn(Cc2ccc(Cl)c(Cl)c2)cn1`: the relative growth was inactive: 0.998.

Take `C[C@H]1CN([C@@H](C)CO)C(=O)c2cc(-c3ccc(C#N)cc3)cnc2O[C@@H]1CN(C)C(=O)Nc1ccc(C(F)(F)F)cc1`: the relative growth is inactive: 1.01.

For the compound `C[C@H]1CN([C@@H](C)CO)C(=O)c2cc(NS(C)(=O)=O)ccc2O[C@H]1CN(C)C(=O)Nc1ccc2c(c1)OCO2`, the relative growth is inactive: 0.994.

Consider `C[C@H]1CN([C@@H](C)CO)C(=O)Cc2cc(NS(C)(=O)=O)ccc2O[C@H]1CN(C)C`, for which the relative growth is inactive: 0.996.

As for `c1cncc(-c2nc3ccc4ccccc4c3c3c2CCCC3)c1`, the relative growth is inactive: 1.03.

For the compound `Cc1ccc(C(=O)N(CC(N)=O)CC(N)=O)cc1`, the relative growth is inactive: 1.01.

With `CC(C)NC(=O)Nc1ccc2c(c1)C(=O)N([C@H](C)CO)C[C@H](C)[C@@H](CN(C)C(=O)Nc1ccccc1)OCCCC[C@H](C)O2`, the relative growth is inactive: 0.983.

As for `C[C@H](CO)N1C[C@H](C)[C@H](CN(C)Cc2ccc(Cl)c(Cl)c2)Oc2ccc(NC(=O)Cc3ccccc3)cc2C1=O`, the relative growth was inactive: 0.996.

Take `Cc1ccc(S(=O)(=O)Oc2ccc(/N=N/c3ccc(-c4ccc(/N=N/c5c(O)ccc6cc(S(=O)(=O)O)cc(S(=O)(=O)O)c56)c(C)c4)cc3C)cc2)cc1`: the relative growth was inactive: 0.992.

With `O=C(C[C@@H]1CC[C@H]2[C@@H](COC[C@@H](O)CN2C(=O)c2ccc3c(c2)OCO3)O1)NCCN1CCCCC1`, the relative growth is inactive: 0.993.

As to `COc1ccc(S(=O)(=O)N(C)C[C@@H]2OCCCC[C@@H](C)Oc3ccc(NS(=O)(=O)c4cn(C)cn4)cc3C(=O)N([C@H](C)CO)C[C@H]2C)cc1`, the relative growth was inactive: 0.99.

For the compound `C[C@H]1CN([C@@H](C)CO)C(=O)c2cc(NC(=O)CCCN(C)C)ccc2O[C@H]1CN(C)C(=O)Nc1ccc2c(c1)OCO2`, the relative growth was inactive: 0.986.

As for `C[C@H](CO)N1C[C@H](C)[C@H](CN(C)S(=O)(=O)c2cccs2)Oc2ccc(NC(=O)C3CC3)cc2C1=O`, the relative growth was inactive: 0.987.

Regarding `C[C@@H]1CN([C@H](C)CO)C(=O)c2cc(-c3ccncc3)cnc2O[C@H]1CN(C)C(=O)Nc1ccc2c(c1)OCO2`, the relative growth was inactive: 0.972.

With `C[C@H](CO)N1C[C@H](C)[C@H](CN(C)C(=O)Nc2ccc3c(c2)OCO3)Oc2ccc(NC(=O)C3CC3)cc2CC1=O`, the relative growth is inactive: 0.989.

With `COc1ccc(S(=O)(=O)N(C)C[C@@H]2Oc3ccc(NC(=O)Nc4ccc(Cl)c(Cl)c4)cc3CC(=O)N([C@@H](C)CO)C[C@@H]2C)cc1Cl`, the relative growth was inactive: 1.03.

As for `CC(C)=CCC/C(C)=C/C=C/C(C)=C/C=C/C(C)=C/C=C/C=C(C)/C=C/C=C(C)/C=C/C=C(\C)CCC=C(C)C`, the relative growth is inactive: 0.966.

In the case of `Cc1c(C)c2ccc(O[C@@H]3O[C@H](CO)[C@H](O)[C@H](O)[C@H]3O)cc2oc1=O`, the relative growth is inactive: 1.01.

On to `C[C@H](CO)N1C[C@H](C)[C@@H](CN(C)C(=O)Nc2ccc3c(c2)OCO3)Oc2c(NC(=O)c3ccc(-c4nccs4)cc3)cccc2C1=O`, for which the relative growth was inactive: 1.01.

Take `COc1ccccc1S(=O)(=O)N[C@H]1CC[C@H](CCNC(=O)C2CCOCC2)O[C@H]1CO`: the relative growth is inactive: 1.01.

With `COc1ccc(S(=O)(=O)Nc2cccc3c2O[C@@H](CN(C)Cc2ccncc2)[C@H](C)CN([C@H](C)CO)C3=O)cc1`, the relative growth was inactive: 0.95.

Turning to `Cc1cc(C)n(-c2ccc(=O)n(CC(=O)N3CCN(S(=O)(=O)c4ccc(F)cc4)CC3)n2)n1`, the relative growth is inactive: 1.01.

On to `COc1ccccc1S(=O)(=O)N[C@H]1CC[C@H](CCNC(=O)C2CC2)O[C@H]1CO`, for which the relative growth is inactive: 1.

For `O=C(NCCN1CCOCC1)[C@]1(Cc2ccccc2)N=C(c2ccc(OCCCO)cc2)O[C@@H]1c1ccccc1`, the relative growth was inactive: 1.01.

In the case of `C[N+](C)(C)CCCC[C@@H]1NC(=O)[C@H]2C[C@@H](C(=O)NCCCCCNC(=O)CS)[C@@H](c3cccc(OCCO)c3)N2C1=O`, the relative growth was inactive: 1.01.

Turning to `COc1ccc([Si](C)(C)[C@@H]2[C@@H](CC(=O)N(CCO)Cc3ccccc3)O[C@]3(C(=O)N(Cc4cccc(N5CCCCC5=O)c4)c4ccccc43)[C@H]2C)cc1`, the relative growth is inactive: 1.02.

For `C[C@@H]1CN([C@@H](C)CO)C(=O)c2cc(NS(=O)(=O)c3cn(C)cn3)ccc2O[C@H]1CN(C)S(C)(=O)=O`, the relative growth was inactive: 1.02.

In the case of `C[C@@H]1CN([C@@H](C)CO)C(=O)c2cc(-c3cncnc3)cnc2O[C@@H]1CN(C)C(=O)CN1CCOCC1`, the relative growth was inactive: 0.995.

Turning to `C[C@H]1CN([C@@H](C)CO)S(=O)(=O)c2ccc(C#Cc3ccncc3)cc2O[C@H]1CN(C)C(=O)C1CCC1`, the relative growth is inactive: 0.986.

Consider `O=C(O)C1(c2ccccc2)CCCC1`, for which the relative growth is inactive: 1.

In the case of `CN(C)CC(=O)N[C@H]1CC[C@H](CCNC(=O)C2CC2)O[C@H]1CO`, the relative growth is inactive: 0.99.

For `C[C@@H]1CN([C@@H](C)CO)C(=O)c2cc(C#CC3(O)CCCC3)cnc2O[C@H]1CN(C)C(=O)Cc1cccnc1`, the relative growth was inactive: 0.975.

On to `C[C@H](O)C#Cc1cnc2c(c1)C(=O)N([C@@H](C)CO)C[C@@H](C)[C@H](CN(C)C(=O)CN1CCOCC1)O2`, for which the relative growth is inactive: 0.97.

As to `Cc1noc(C)c1NC(=O)Nc1cccc2c1O[C@H](CN(C)C(=O)Nc1ccc(C(F)(F)F)cc1)[C@@H](C)CN([C@@H](C)CO)C2=O`, the relative growth was inactive: 0.944.

For `C[C@@H]1CN([C@H](C)CO)C(=O)c2cc(NC(=O)CCCCCC(=O)Nc3ccccc3N)ccc2O[C@H]1CN(C)Cc1ccc(-c2ccccc2)cc1`, the relative growth was inactive: 1.03.

For the compound `COc1ccc(NC(=O)Nc2cccc3c2O[C@H](CN(C)S(=O)(=O)c2cn(C)cn2)[C@H](C)CN([C@H](C)CO)C3=O)cc1`, the relative growth is inactive: 1.

As for `C[C@H](CO)N1C[C@H](C)[C@@H](CN(C)C(=O)C2CCOCC2)Oc2ncc(-c3cccc(C#N)c3)cc2C1=O`, the relative growth was inactive: 1.02.

For the compound `CCCCC1=NC2(CCCC2)C(=O)N1Cc1ccc(-c2ccccc2-c2nnn[nH]2)cc1`, the relative growth was inactive: 1.04.

With `CC(C)NCC(O)c1ccc(NS(C)(=O)=O)cc1.Cl` (stereo not drawn), the relative growth was inactive: 0.927.

Turning to `CC(C)COC(=O)OCN1C(=O)CN(CCN2CC(=O)N(COC(=O)OCC(C)C)C(=O)C2)CC1=O`, the relative growth is inactive: 0.985.

As for `C[C@@H]1CN([C@H](C)CO)C(=O)c2cc(NC(=O)c3ccccc3)ccc2O[C@@H](C)CCCCO[C@H]1CN(C)Cc1ccccc1`, the relative growth is inactive: 1.

In the case of `CCCC#Cc1ccc2c(c1)O[C@@H](CN(C)S(=O)(=O)c1cccc(F)c1)[C@@H](C)CN([C@@H](C)CO)S2(=O)=O`, the relative growth was inactive: 0.995.

For the compound `C[C@H]1CN([C@@H](C)CO)C(=O)Cc2cc(NC(=O)c3ccncc3)ccc2O[C@H]1CN(C)Cc1ccncc1`, the relative growth was inactive: 0.993.

`Cc1noc(C)c1NC(=O)Nc1ccc2c(c1)C(=O)N([C@@H](C)CO)C[C@@H](C)[C@H](CN(C)Cc1ccc(C(F)(F)F)cc1)OCCCC[C@@H](C)O2`: the relative growth is inactive: 1.02.

Regarding `C[C@@H]1CCCCO[C@H](CN(C)Cc2ccc3c(c2)OCO3)[C@@H](C)CN([C@@H](C)CO)C(=O)c2cc(NC(=O)Nc3ccccc3)ccc2O1`, the relative growth was inactive: 0.99.

Consider `O=C(C[C@H]1CC[C@@H]2[C@H](COC[C@H](O)CN2C(=O)c2ccc3c(c2)OCO3)O1)NC1Cc2ccccc2C1`, for which the relative growth is inactive: 0.962.

Take `NC(=O)Cc1cccc(C(=O)c2ccccc2)c1N`: the relative growth was inactive: 1.08.

Turning to `O=C(C[C@@H]1CC[C@H]2[C@@H](COC[C@@H](O)CN2C(=O)c2cnccn2)O1)N1CCN(c2ccccc2)CC1`, the relative growth was inactive: 1.

Take `Cc1ccc(-c2ccc3c(c2)O[C@@H](CN(C)C(=O)CN(C)C)[C@H](C)CN([C@H](C)CO)S3(=O)=O)cc1`: the relative growth is inactive: 0.992.

As for `C=CC1=C(C(=O)O)N2C(=O)C(NC(=O)C(=NOCC(=O)O)c3csc(N)n3)C2SC1` (stereo not drawn), the relative growth is inactive: 1.01.

As to `Nc1ncnc2c1ncn2[C@@H]1O[C@H](CO)C[C@H]1O`, the relative growth was inactive: 1.

For the compound `CNC(=O)c1ccc(OC(C)=O)cc1`, the relative growth was inactive: 1.01.

Turning to `Cc1ccc(S(=O)(=O)Nc2ccc3c(c2)CC(=O)N([C@H](C)CO)C[C@H](C)[C@@H](CN(C)Cc2ccc(-c4ccccc4)cc2)O3)cc1`, the relative growth is inactive: 1.02.

With `COc1cccc2c1C(=O)c1c(O)c3c(c(O)c1C2=O)C[C@@](O)(C(=O)CO)C[C@@H]3O[C@H]1C[C@H](N)[C@H](O)[C@H](C)O1`, the relative growth is inactive: 0.93.

For `CCCNC(=O)N1C[C@H](C)[C@H](OC)CN(C)C(=O)c2cc(NS(=O)(=O)CC(F)(F)F)ccc2OC[C@@H]1C`, the relative growth is inactive: 0.966.

As for `Cc1ccc(S(=O)(=O)N2C[C@H](O)COC[C@H]3O[C@H](CC(=O)N[C@H]4CCN(Cc5ccccc5)C4)CC[C@@H]32)cc1`, the relative growth was inactive: 1.01.

On to `COc1ccc(S(=O)(=O)N(C)C[C@@H]2OCCCC[C@@H](C)Oc3ccc(NS(C)(=O)=O)cc3C(=O)N([C@H](C)CO)C[C@@H]2C)cc1`, for which the relative growth was inactive: 0.999.

For `COc1ccc(S(=O)(=O)N(C)C[C@H]2Oc3ccc(NS(=O)(=O)c4ccc(F)cc4)cc3CC(=O)N([C@@H](C)CO)C[C@H]2C)cc1`, the relative growth was inactive: 1.06.

In the case of `CC(C)CNC(=O)C(=O)NCc1ccccn1`, the relative growth was inactive: 0.947.

As for `C[C@@H]1CN([C@H](C)CO)C(=O)CCCn2nncc2CO[C@@H]1CN(C)C(=O)CCCN(C)C`, the relative growth was inactive: 0.987.

`O=C(CN1CCOCC1)N[C@@H]1CC[C@H](CCNC(=O)C2CCCCC2)O[C@@H]1CO`: the relative growth was inactive: 0.994.

With `C=CCN(C(=O)[C@H]1N(c2ccc(CCO)cc2)C(=O)[C@H]2[C@H](C(=O)O)[C@@H]3C=C[C@@]21O3)c1ccc(OC)cc1`, the relative growth was inactive: 1.04.

Consider `C[C@H](CO)N1C[C@H](C)[C@H](CN(C)Cc2ccc(Cl)c(Cl)c2)Oc2ccc(NS(=O)(=O)c3ccc(F)cc3)cc2CC1=O`, for which the relative growth was inactive: 0.989.
